The text below walks through data of paper PMC10092763.

Amino acid sequences for entries named in this document (tags omitted).
UniProt Q02962: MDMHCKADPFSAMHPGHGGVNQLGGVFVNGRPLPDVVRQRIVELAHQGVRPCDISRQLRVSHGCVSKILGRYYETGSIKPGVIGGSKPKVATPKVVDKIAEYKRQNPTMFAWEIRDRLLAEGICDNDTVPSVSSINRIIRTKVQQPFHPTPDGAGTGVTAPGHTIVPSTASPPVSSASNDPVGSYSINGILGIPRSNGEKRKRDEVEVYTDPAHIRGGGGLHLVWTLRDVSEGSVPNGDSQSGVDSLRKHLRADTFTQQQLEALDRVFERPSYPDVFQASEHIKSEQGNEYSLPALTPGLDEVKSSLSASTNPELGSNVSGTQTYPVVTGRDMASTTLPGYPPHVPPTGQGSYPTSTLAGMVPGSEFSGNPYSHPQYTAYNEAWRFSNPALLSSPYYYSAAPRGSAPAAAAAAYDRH

No constants are given. Whether binding was seen depends on the method and setting. For some assays here: In cells and extracts the contact can be indirect. Some binding calls cover weakened binding; strength is not graded here. For some assays here: Tags and fused reporters may be left off the sequences shown.

For experiment [1], the target named is T1, FLAG-tagged AFF4 (human) (UniProt Q9UHB7).
T1 sequence: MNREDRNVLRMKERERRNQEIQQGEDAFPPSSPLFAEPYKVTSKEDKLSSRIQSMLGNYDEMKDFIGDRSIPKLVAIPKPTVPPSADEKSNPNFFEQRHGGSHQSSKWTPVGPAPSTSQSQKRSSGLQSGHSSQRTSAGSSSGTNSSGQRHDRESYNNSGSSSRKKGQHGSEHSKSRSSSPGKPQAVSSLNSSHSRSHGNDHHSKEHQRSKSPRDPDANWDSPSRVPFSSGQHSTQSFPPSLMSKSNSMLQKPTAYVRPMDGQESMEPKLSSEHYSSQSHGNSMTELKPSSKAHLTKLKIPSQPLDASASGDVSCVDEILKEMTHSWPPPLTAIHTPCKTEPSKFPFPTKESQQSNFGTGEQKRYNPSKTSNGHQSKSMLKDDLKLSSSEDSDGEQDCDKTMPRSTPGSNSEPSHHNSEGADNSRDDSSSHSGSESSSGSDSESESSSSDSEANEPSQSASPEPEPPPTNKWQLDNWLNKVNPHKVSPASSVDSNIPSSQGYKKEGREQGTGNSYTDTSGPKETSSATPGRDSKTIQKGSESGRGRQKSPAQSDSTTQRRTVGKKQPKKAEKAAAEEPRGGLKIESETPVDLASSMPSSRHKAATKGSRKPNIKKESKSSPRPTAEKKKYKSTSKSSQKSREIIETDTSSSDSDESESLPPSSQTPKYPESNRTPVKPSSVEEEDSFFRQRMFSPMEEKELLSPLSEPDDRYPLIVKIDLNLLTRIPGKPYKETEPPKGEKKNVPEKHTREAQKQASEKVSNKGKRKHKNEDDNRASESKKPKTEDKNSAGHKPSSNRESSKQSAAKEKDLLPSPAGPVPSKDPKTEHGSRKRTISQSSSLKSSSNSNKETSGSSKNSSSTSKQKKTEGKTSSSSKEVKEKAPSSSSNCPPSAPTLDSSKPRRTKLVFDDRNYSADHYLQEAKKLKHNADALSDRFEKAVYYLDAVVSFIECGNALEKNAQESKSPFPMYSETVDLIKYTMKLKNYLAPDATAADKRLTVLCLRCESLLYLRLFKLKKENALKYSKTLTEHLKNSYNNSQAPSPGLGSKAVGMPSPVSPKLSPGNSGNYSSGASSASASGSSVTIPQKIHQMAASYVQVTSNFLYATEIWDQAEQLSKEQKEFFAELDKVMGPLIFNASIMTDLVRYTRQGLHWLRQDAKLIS
Put plainly: pull-down; FLAG-AFF4 enriched from BxPC-3 cells and washed with 0.5% NP40, not treated with lambda phosphatase, then incubated with His tagged PAX2 purified from E. coli; both purified.

Experiment [2] has as its target T1, FLAG-tagged AFF4 (human). As to the kind of experiment: condition: only FLAG-AFF4 treated with λPPase (10 nM) for one hour before incubation; pull-down; FLAG-AFF4 enriched from BxPC-3 cells and washed with 0.5% NP40, treated with lambda phosphatase (10 nM) for one hour, then incubated with His tagged PAX2 purified from E. coli; both purified.
For experiment [3], the target named is T1, FLAG-tagged AFF4 (human). As to the kind of experiment: co-IP; FLAG-AFF4 transiently transfected into AsPC-1 or BxPC-3 cells; FLAG-M2 beads precipitate FLAG-AFF4.
The target in experiment [4] is PAX2 (human (endogenous in AsPC-1, BxPC-3, PANC-1)) (UniProt Q02962). Put plainly: co-IP; reverse immunoprecipitation with an antibody against PAX2.
The next experiment addresses FLAG-tagged PAX2 (UniProt Q02962). As to the kind of experiment: co-IP; HA-tagged AFF4 (WT or serine mutants) transfected with or without FLAG-tagged PAX2 into BxPC-3 cells; FLAG-M2 beads precipitate FLAG-PAX2.

On to “His tagged PAX2 (from UniProt Q02962 1-417)”, for which the binding entry with FLAG-tagged AFF4 (human) [1] was “binds”; in the experiment with FLAG-tagged AFF4 (human) [2], “no binding”.
In the case of PAX2 (from UniProt Q02962 1-417), the binding entry with FLAG-tagged AFF4 (human) [3] was “binds”.

B1: AFF4 (found in the reverse immunoprecipitation with an antibody against PAX2) (protein, UniProt Q9UHB7-1 1-1163)
chain: T1 sequence
For the molecule B1, in experiment [4], the binding entry was “binds”.

B2: HA-tagged AFF4 WT (protein, UniProt Q9UHB7-1 1-1163)
chain: T1 sequence
For B2, the binding result in the experiment with FLAG-tagged PAX2 was “binds”.
